{"source": "PubChem BioAssay (NCATS)", "key": {"[1]": {"test": "Nrf2 qHTS screen for inhibitors: Validation (AID 493153; active = well fitted inhibition curve with a large enough effect in the main read-out, with a control signal flat, not every such curve was filed as active; inconclusive = small, poorly fitted or top-dose-only effect, or effect the other way, or a change in a side signal; inactive = no such curve, though single readings can be large or run the other way; also: potency is read from the fitted curve at half-maximal effect)", "in_short": "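A549 cells carrying an ARE-driven firefly luciferase reporter, in 5% FBS OPTI-MEM, were treated with compounds in concentration-response for 18-24 h at 37°C. Viability was read by CellTiter-Fluor fluorescence, then Nrf2 activity by luciferase luminescence.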"}, "Furin (Homo sapiens)": {"biological_target": "Furin (Homo sapiens) (UniProt P09958)", "sequence (P09958 whole entry, looked up)": "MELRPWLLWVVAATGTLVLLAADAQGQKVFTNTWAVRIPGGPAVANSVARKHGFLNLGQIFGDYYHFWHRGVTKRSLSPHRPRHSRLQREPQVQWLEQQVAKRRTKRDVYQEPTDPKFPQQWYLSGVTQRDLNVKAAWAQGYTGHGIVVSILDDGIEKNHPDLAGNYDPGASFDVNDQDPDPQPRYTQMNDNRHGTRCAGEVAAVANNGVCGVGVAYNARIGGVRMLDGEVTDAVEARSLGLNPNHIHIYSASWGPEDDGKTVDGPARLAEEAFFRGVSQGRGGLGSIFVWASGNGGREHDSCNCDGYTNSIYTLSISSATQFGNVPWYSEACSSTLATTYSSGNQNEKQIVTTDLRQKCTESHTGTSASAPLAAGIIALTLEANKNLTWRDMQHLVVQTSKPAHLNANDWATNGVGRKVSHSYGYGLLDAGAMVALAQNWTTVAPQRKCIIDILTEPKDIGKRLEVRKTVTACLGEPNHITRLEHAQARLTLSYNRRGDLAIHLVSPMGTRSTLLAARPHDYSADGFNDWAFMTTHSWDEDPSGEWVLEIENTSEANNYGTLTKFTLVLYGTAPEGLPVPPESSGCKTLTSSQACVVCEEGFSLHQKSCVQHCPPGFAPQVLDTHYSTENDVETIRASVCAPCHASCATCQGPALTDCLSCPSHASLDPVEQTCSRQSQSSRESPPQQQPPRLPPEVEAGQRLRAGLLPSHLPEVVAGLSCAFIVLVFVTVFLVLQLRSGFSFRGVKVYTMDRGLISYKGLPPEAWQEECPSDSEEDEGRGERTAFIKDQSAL", "test": "Furin counterscreen qHTS for Zika virus inhibitors (AID 1347149); also: potency is read from the fitted curve at half-maximal effect; nearly all actives have a fitted effect of over 70% in size", "in_short": "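Fluorogenic cleavage of BOC-RVRR-AMC (2 microM final, Km ~15 µM) was monitored (ex 340, em 450 nm) at 37C after 15 min RT preincubation of 5 nM furin with compounds in HEPES pH 7.0 buffer with CaCl2 and Triton X-100. Percent inhibition was fitted to a 4-parameter Hill curve.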"}, "[2]": {"test": "ZIKV-mCherry secondary qHTS for Zika virus inhibitors (AID 1347158); also: potency is read from the fitted curve at half-maximal effect", "in_short": "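Vero cells, 5,000/well, plated overnight at 37 °C, then compound added and infected with recombinant ZIKV-mCherry at MOI 1 for 48-72 h. PFA-fixed, Hoechst nuclear stain, high-content imaging; cells with mCherry intensity above 450 RFU scored infected, reported as percent infection.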"}, "[3]": {"test_system": "Zika virus NS2B-NS3 protease (linked)", "test": "384 well plate NINDS AMC confirmatory qHTS for Zika virus inhibitors (AID 1347163);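 also: fluorescence of AMC released from Ac-VKTGKR-AMC peptide cleaved by the protease; top concentration of the series differs between compounds; nearly all actives have a fitted effect of over 50% in size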", "in_short": "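Linked protease 5/30/60 nM final; cpds up to 1 mM final, ~15 min preinc. Substrate Ac-VKTGKR-AMC 30 microM final. RT, dark, 25 min; FI ex 355/em 460; normalized to no-enzyme/no-inhibitor ctrls.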"}, "[4]": {"test_system": "Zika virus NS2B-NS3 protease (linked construct)", "test": "384 well plate NINDS Rhodamine confirmatory qHTS for Zika virus inhibitors (AID 1347164);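 also: fluorescence from protease cleavage of Ac-LKRR-rhodamine 110 substrate; top concentration of the series differs between compounds; nearly all actives have a fitted effect of over 65% in size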", "in_short": "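Fluorescence read at ex 485 nm/em 538 nm, 25 min after adding 10 microM Ac-LKRR-Rd substrate at room temperature in the dark; signal normalized to no-enzyme and no-inhibitor controls. Enzyme final 5, 30 or 60 nM; compounds, ~15 min preincubation.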"}, "[5]": {"test": "Tertiary RLuc qRT-PCR qHTS assay for Zika virus inhibitors (AID 1347169); also: potency is read from the fitted curve at half-maximal effect; nearly all actives have a fitted effect of over 55% in size", "in_short": "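Luminescence read-out: live-cell Renilla luciferase substrate applied to infected Vero cells, signal measured after 1-1.5 hrs. Cells had received compound before ZIKV-RLuc (Cambodian strain, MOI 1-2) infection and were incubated 48-72 hrs at 37 degrees C.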"}}, "note": "The inconclusive results got no clear call from the source; some entries with a clear call stand among them for comparison. For part of these data: Potencies beside an inconclusive call are fits to weak or partial responses and may not hold up. Active and inactive are the calls of the source. Unless noted, calls follow the shape of the dose curve; as a rule, active = well fitted inhibition curve with a large enough effect; inconclusive = small, poorly fitted or top-dose-only effect; inactive = no such curve, though single readings can be large or run the other way. Tags tell the direction and shape of the fitted curve."}
{"molecule": "Cc1ccc(Cl)c(Nc2ccccc2C(=O)O)c1Cl", "values": [{"measurement": "Potency", "setting": "[1]", "value": "inconclusive: 20.6 µM [inhibitor, partial curve, poor fit]"}]}
{"molecule": "O=C(O)c1cccc(-c2ccc(-c3cn(C(=O)N4CCCCC4Cc4ccccc4)nn3)cc2)c1", "note": "(stereo unspecified)", "values": [{"measurement": "Potency", "setting": "Furin (Homo sapiens)", "value": "active: 55.5 µM"}, {"measurement": "Potency", "setting": "[2]", "value": "inconclusive: 17.8 µM [inhibitor, partial curve, poor fit]"}, {"measurement": "Potency", "setting": "[3]", "value": "inactive"}, {"measurement": "Potency", "setting": "[4]", "value": "inactive"}, {"measurement": "Potency", "setting": "[5]", "value": "active: 2.62 µM"}]}
